# Laboratory results reported in PubChem BioAssay AID504332 (National Center for Advancing Translational Sciences (NCATS), 2011).
# Out of some 350,000 compounds screened, about 31,000 (8.9%) were called active. The shares of active, inactive and inconclusive entries below differ from those in the screen. Calls come from the whole dose curve; as a rule, active = well fitted inhibition curve with a large enough effect; inconclusive = small, poorly fitted or top-dose-only effect; inactive = no such curve, though single readings can be large or run the other way. A potency beside an inconclusive call is a rough fit, not a confirmed value.
# Molecular target: Histone-lysine N-methyltransferase EHMT2 (Homo sapiens) (UniProt Q96KQ7)
# Chain of UniProt Q96KQ7 (Q96KQ7 whole entry, looked up): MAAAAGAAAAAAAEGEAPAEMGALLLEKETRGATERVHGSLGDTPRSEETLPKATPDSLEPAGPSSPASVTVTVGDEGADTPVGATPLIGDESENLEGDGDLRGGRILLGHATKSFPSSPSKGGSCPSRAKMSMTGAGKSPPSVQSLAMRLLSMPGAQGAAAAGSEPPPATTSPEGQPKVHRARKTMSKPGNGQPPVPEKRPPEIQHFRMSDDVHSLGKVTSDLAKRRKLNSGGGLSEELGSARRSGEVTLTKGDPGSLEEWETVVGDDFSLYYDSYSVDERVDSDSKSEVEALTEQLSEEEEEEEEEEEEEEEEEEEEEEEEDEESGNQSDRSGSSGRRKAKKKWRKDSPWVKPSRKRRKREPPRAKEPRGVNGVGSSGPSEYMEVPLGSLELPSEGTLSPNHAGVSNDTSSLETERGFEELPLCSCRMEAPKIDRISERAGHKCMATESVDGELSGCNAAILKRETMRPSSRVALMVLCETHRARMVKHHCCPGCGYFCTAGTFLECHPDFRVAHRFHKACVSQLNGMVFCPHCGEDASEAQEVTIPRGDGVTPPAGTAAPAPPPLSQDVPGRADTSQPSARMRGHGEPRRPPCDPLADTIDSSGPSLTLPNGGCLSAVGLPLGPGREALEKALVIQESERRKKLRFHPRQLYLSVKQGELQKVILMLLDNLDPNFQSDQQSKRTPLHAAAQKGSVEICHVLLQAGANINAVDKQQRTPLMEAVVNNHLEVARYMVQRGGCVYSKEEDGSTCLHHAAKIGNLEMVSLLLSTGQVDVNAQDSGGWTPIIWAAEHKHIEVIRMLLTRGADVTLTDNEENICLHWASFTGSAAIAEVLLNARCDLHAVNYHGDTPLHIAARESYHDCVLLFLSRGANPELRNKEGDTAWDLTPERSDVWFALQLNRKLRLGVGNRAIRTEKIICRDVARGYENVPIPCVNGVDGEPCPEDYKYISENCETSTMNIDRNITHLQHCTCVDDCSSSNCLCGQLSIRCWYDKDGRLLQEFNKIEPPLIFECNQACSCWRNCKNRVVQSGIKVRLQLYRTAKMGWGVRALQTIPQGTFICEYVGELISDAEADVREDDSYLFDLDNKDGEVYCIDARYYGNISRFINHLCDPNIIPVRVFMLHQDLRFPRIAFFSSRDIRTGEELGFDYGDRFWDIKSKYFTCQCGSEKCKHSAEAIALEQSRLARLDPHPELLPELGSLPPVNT
# Assay: qHTS Assay for Inhibitors of Histone Lysine Methyltransferase G9a; note: nearly all actives have a fitted effect of over 75% in size
# Conditions: G9a H3K9 monomethylation, AlphaScreen, 2 h; activity, negative = inhibition: at 59 µM (top of the series) unless noted
# In short: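 Using a bead-based AlphaScreen, monomethylated H3K9 product from 2 h room-temperature reactions (G9a 20 nM, peptide 500 nM, SAM 20 uM) was detected with 0.5 ug/mL rabbit anti-H3K9me1 antibody.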
# % is set by controls: 0 for no effect and ±100 for the full control effect; potency is the fitted concentration of half-maximal effect; tags give direction and shape of the fitted curve.
SMILES,Potency,"activity, negative = inhibition"
CCC(=O)N1CCN(c2ccccc2NC(=S)NC(=O)c2cccc([N+](=O)[O-])c2)CC1,"inconclusive: 50.1 µM [inhibitor, partial curve]",–
CCOC(=O)C(NCc1ccccc1OC)(NC(=O)CC)C(F)(F)F (configuration not stated),–,inactive: 5.53% [at 0.0925 µM]
Cc1n[nH]c(=S)n1/N=C/c1ccccc1OCc1ccc(Cl)cc1,"inconclusive: 1.78 µM [inhibitor, partial curve, poor fit]",–
Cc1cc(OCC(=O)NCc2nc(-c3ccccc3)no2)c(C)cc1Br,–,inactive: 8.89% [at 12.7 µM]
CCOc1ccccc1NC(=O)NCCCCc1ccccc1,–,inactive: 82.5% [at 102 µM]
O=C(NCCCN1CCCC1=O)c1cccc(S(=O)(=O)N2CCCCC2)c1,–,inactive: 6.55%
O=C1CCCN2N=C(SCC(=O)Nc3ccc(F)cc3F)SC2=N1,–,inactive: 41.3% [at 102 µM]
O=C(CC1C(=O)Nc2ccccc2N1CC(=O)N1CCCC1)Nc1ccc(Br)cc1 (configuration not stated),active: 0.282 µM,–
COc1cc2c3nnc(-c4ccccc4)c-3cn(Cc3ccccc3F)c2cc1OC,–,inactive: 11.8%
Cc1nc(-c2ccc(S(=O)(=O)N3CCN(c4cccc(Cl)c4)CC3)cc2)co1,–,inactive: -32.9%
Cc1cc(C(=O)CN2c3cccc4cccc(c34)S2(=O)=O)c(C)n1C,"inconclusive: 39.8 µM [inhibitor, single point]",–
Cc1ccc(C)n1-c1cccc(N)c1,"inconclusive: 100 µM [inhibitor, single point]",–
COc1ccc(NS(=O)(=O)c2ccc(NC(=O)C3CC3)cc2)cc1,–,inactive: 39.4% [at 102 µM]
COc1cccc(C2/C(=C(\O)c3ccc4c(c3)OCCO4)C(=O)C(=O)N2CCCn2ccnc2)c1 (configuration not stated),"inconclusive: 89.1 µM [inhibitor, single point]",–
COc1ccc(NC(=O)CCN2CCCC2)c(OC)c1,–,inactive: -43.1%
CCc1ccc(OCCOCCN2CCN(C)CC2)cc1,active: 2.82 µM,–
CC1=C(C)CC(C(=O)N2CCN(Cc3ccccc3)CC2)C(C(=O)O)C1 (configuration not stated),–,inactive: -23.6% [at 12.7 µM]
COc1ccc(-n2nnnc2C2CCN(S(=O)(=O)c3ccc(F)cc3Cl)CC2)cc1,"inconclusive: 4.47 µM [inhibitor, single point]",–
COc1ccc(C(=O)N2CCCC(Nc3ccc(F)c(F)c3)C2)c(OC)n1 (configuration not stated),–,inactive: 4.79% [at 102 µM]
Cc1nc2ncccn2c1-c1csc(Nc2ccc(N(C)C)cc2)n1,active: 7.94 µM,–
C1=CC2c3ccccc3NC(c3ccncc3)C2C1 (configuration not stated),active: 1.58 µM,–
CN1CCN(S(=O)(=O)c2ccc(NC(=S)NC(=O)C3CCCCC3)cc2)CC1,"inconclusive: 56.2 µM [inhibitor, partial curve]",–
